Data taken from PubChem BioAssay (NCATS).
The inconclusive results got no clear call from the source; some entries with a clear call stand among them for comparison. The source made the active and inactive calls. The call rests on the fitted dose curve; in most records, active means well fitted curve in either direction with a large enough effect (not every such curve was filed as active); inconclusive means small, poorly fitted or top-dose-only effect, or another doubt; inactive means flat fitted curve, though single readings scatter.

Assay: AP1 Signaling Pathway (AID 357);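 further: ME-180 reporter cells stimulated with EGF at its EC50 level; top concentration of the series differs between compounds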
Conditions: ME-180 (cervical carcinoma) AP-1-bla reporter, EGF-induced, beta-lactamase ratio, 5 h; at 17.2 µM (top of the series) unless noted
Summary of the method: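 Titration-series screen for positive or negative modulators of EC50 EGF-induced signaling in ME-180 cells carrying an AP-1-driven beta-lactamase reporter. After 5 hours at 37 degrees Celsius, CCF4 460nm/530nm emission ratio gave %Activity; AC50 values derived.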
On the % scale 0 is the no-effect control and ±100 the full control effect.

**Q.** With Cc1cnc(CNc2ncnc3ccc(-c4ccoc4)cc23)cn1 as the compound, how does the activity change, negative = inhibition read?
**A.** inactive: -14.2% [at 7.69 µM]

**Q.** For Nc1cc(S(N)(=O)=O)ccc1SSc1ccc(S(N)(=O)=O)cc1N, which activity change, negative = inhibition is on record?
**A.** inactive: 19.2% [at 7.69 µM]

**Q.** Which activity change, negative = inhibition does the source give for COc1ccc(NC(=O)N2CCC3(CC2)CCN(C(=O)c2cnccn2)CC3)cc1 here?
**A.** inactive: -11.1% [at 7.69 µM]

**Q.** Which activity change, negative = inhibition does the source give for Cc1noc(C)c1C(=O)N1CCC2(CCCN(c3ccccn3)C2)CC1 here?
**A.** inactive: -4.45% [at 7.69 µM]

**Q.** Which activity change, negative = inhibition does the source give for C=CCOC(=O)C1=C(C)NC(SCC(=O)N(CC)CC)=C(C#N)C1c1ccccc1 (configuration not stated) here?
**A.** inconclusive: -32.4% [inhibitor]

**Q.** For CC(=O)N1CCC[C@@]2(CCN(C(c3ccccc3)c3ccccc3)C2)C1, which activity change, negative = inhibition is on record?
**A.** inactive: -0.322% [at 7.69 µM]

**Q.** Which activity change, negative = inhibition does the source give for CCN(CC)CCCN1C(=O)C(=O)/C(=C(/O)c2ccc(OC)cc2)C1c1ccco1 (configuration not stated) here?
**A.** inactive: 9.88%
